# Some of the results follow.
# B1: LKITALY (Gibberella zeae) (protein)
# chain: MGNFHESSNNIWLEDGHILHAECGNGEGDYVESTLDLDYYIGNDDGSFSWGGENFSGSASNITLDIEGDDNIPVLRAELNPMDGDPVEANVNLSERIGNDCGTLIFLA
# Key:
# Test in all cases: glycan array binding signal (z-score within array); higher = stronger binding
# Settings in all cases: glycan notation: IUPAC condensed, linker removed
# [1] = target: Neu5Ac(a2-3)Gal(b1-3)[Neu5Ac(a2-6)]GalNAc
# Summary of the method: (§1)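 Glycan array data were curated from 3228 arrays in the Consortium for Functional Glycomics database and kept only where the protein sequence was available. Glycan names were converted to IUPAC-condensed notation, and columns mapping to the same glycan were averaged. The binding signal is a within-array Z-score, averaged across arrays of the same protein sequence at different concentrations or buffers and across linkers. Negative Z-scores can be read as non-binding.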
# Neu5Ac(a2-3)Gal(b1-4)Glc = target: Neu5Ac(a2-3)Gal(b1-4)Glc
# Summary of the method: as §1
# [2] = target: Neu5Ac(a2-3)Gal(b1-4)GlcNAc
# Summary of the method: as §1
# [3] = target: Neu5Ac(a2-3)Gal(b1-4)GlcNAc(b1-2)Man(a1-3)[Neu5Ac(a2-3)Gal(b1-4)GlcNAc(b1-2)Man(a1-6)]Man(b1-4)GlcNAc(b1-4)GlcNAc
# Summary of the method: as §1
# [4] = target: Neu5Ac(a2-3)Gal(b1-4)GlcNAc(b1-3)Gal(b1-4)GlcNAc
# Summary of the method: as §1
# [5] = target: Neu5Ac(a2-3)Gal(b1-4)GlcNAc(b1-3)Gal(b1-4)GlcNAc(b1-3)Gal(b1-4)GlcNAc
# Summary of the method: as §1
# [6] = target: Neu5Ac(a2-3)Gal(b1-4)GlcNAc(b1-3)Gal(b1-4)[Fuc(a1-3)]GlcNAc
# Summary of the method: as §1
# [7] = target: Neu5Ac(a2-3)Gal(b1-4)GlcNAc6S
# Summary of the method: as §1
# [8] = target: Neu5Ac(a2-3)Gal(b1-4)[Fuc(a1-3)]GlcNAc
# Summary of the method: as §1
# [9] = target: Neu5Ac(a2-3)Gal(b1-4)[Fuc(a1-3)]GlcNAc(b1-3)Gal
# Summary of the method: as §1
# [10] = target: Neu5Ac(a2-3)Gal(b1-4)[Fuc(a1-3)]GlcNAc(b1-3)Gal(b1-4)GlcNAc
# Summary of the method: as §1
# [11] = target: Neu5Ac(a2-3)Gal(b1-4)[Fuc(a1-3)]GlcNAc(b1-3)Gal(b1-4)[Fuc(a1-3)]GlcNAc(b1-3)Gal(b1-4)[Fuc(a1-3)]GlcNAc
# Summary of the method: as §1
# [12] = target: Neu5Ac(a2-3)Gal(b1-4)[Fuc(a1-3)]GlcNAc6S
# Summary of the method: as §1
# [13] = target: Neu5Ac(a2-3)Gal6S(b1-4)GlcNAc
# Summary of the method: as §1
# [14] = target: Neu5Ac(a2-3)Gal6S(b1-4)[Fuc(a1-3)]GlcNAc
# Summary of the method: as §1
# Neu5Ac(a2-3)GalNAc = target: Neu5Ac(a2-3)GalNAc
# Summary of the method: as §1
# [15] = target: Neu5Ac(a2-3)GalNAc(b1-4)GlcNAc
# Summary of the method: as §1
# [16] = target: Neu5Ac(a2-3)[GalNAc(b1-4)]Gal(b1-4)Glc
# Summary of the method: as §1
# [17] = target: Neu5Ac(a2-3)[GalNAc(b1-4)]Gal(b1-4)GlcNAc
# Summary of the method: as §1
# [18] = target: Neu5Ac(a2-3)[Neu5Ac(a2-6)]GalNAc
# Summary of the method: as §1
# Neu5Ac(a2-6)Gal = target: Neu5Ac(a2-6)Gal
# Summary of the method: as §1
# Neu5Ac(a2-6)Gal(b1-4)Glc = target: Neu5Ac(a2-6)Gal(b1-4)Glc
# Summary of the method: as §1
# [19] = target: Neu5Ac(a2-6)Gal(b1-4)GlcNAc
# Summary of the method: as §1
# [20] = target: Neu5Ac(a2-6)Gal(b1-4)GlcNAc(b1-3)Gal(b1-4)GlcNAc
# Summary of the method: as §1
# [21] = target: Neu5Ac(a2-6)Gal(b1-4)GlcNAc(b1-3)Gal(b1-4)[Fuc(a1-3)]GlcNAc(b1-3)Gal(b1-4)[Fuc(a1-3)]GlcNAc
# Summary of the method: as §1
# [22] = target: Neu5Ac(a2-6)Gal(b1-4)GlcNAc6S
# Summary of the method: as §1
# Neu5Ac(a2-6)GalNAc = target: Neu5Ac(a2-6)GalNAc
# Summary of the method: as §1
# [23] = target: Neu5Ac(a2-6)GalNAc(b1-4)GlcNAc
# Summary of the method: as §1
# Neu5Ac(a2-8)Neu5Ac = target: Neu5Ac(a2-8)Neu5Ac
# Summary of the method: as §1
# [24] = target: Neu5Ac(a2-8)Neu5Ac(a2-3)Gal(b1-4)Glc
# Summary of the method: as §1
# [25] = target: Neu5Ac(a2-8)Neu5Ac(a2-3)[GalNAc(b1-4)]Gal(b1-4)Glc
# Summary of the method: as §1
# [26] = target: Neu5Ac(a2-8)Neu5Ac(a2-8)Neu5Ac
# Summary of the method: as §1
# [27] = target: Neu5Ac(a2-8)Neu5Ac(a2-8)Neu5Ac(a2-3)Gal(b1-4)Glc
# Summary of the method: as §1
# [28] = target: Neu5Ac(a2-8)Neu5Ac(a2-8)Neu5Ac(a2-3)[GalNAc(b1-4)]Gal(b1-4)Glc
# Summary of the method: as §1
# [29] = target: Neu5Ac(a2-8)Neu5Ac(a2-8)Neu5Ac(a2-8)Neu5Ac(a2-3)[GalNAc(b1-4)]Gal(b1-4)Glc
# Summary of the method: as §1
# Neu5Ac(b1-6)GalNAc = target: Neu5Ac(b1-6)GalNAc
# Summary of the method: as §1
# [30] = target: Neu5Ac(b2-6)Gal(b1-4)GlcNAc
# Summary of the method: as §1
# [31] = target: Neu5Ac9Ac(a2-6)Gal(b1-4)GlcNAc
# Summary of the method: as §1
# [32] = target: Neu5Gc(a2-3)Gal(b1-3)GlcNAc
# Summary of the method: as §1
# [33] = target: Neu5Gc(a2-3)Gal(b1-3)[Fuc(a1-4)]GlcNAc
# Summary of the method: as §1
# Neu5Gc(a2-3)Gal(b1-4)Glc = target: Neu5Gc(a2-3)Gal(b1-4)Glc
# Summary of the method: as §1
# [34] = target: Neu5Gc(a2-3)Gal(b1-4)GlcNAc
# Summary of the method: as §1
# [35] = target: Neu5Gc(a2-3)Gal(b1-4)[Fuc(a1-3)]GlcNAc
# Summary of the method: as §1
# [36] = target: Neu5Gc(a2-6)Gal(b1-4)GlcNAc
# Summary of the method: as §1
# Neu5Gc(a2-6)GalNAc = target: Neu5Gc(a2-6)GalNAc
# Summary of the method: as §1
binder,measurement,setting,value
B1,glycan array binding signal (z-score),[1],-0.36
same,glycan array binding signal (z-score),Neu5Ac(a2-3)Gal(b1-4)Glc,0.124
same,glycan array binding signal (z-score),[2],3.05
same,glycan array binding signal (z-score),[3],-0.346
same,glycan array binding signal (z-score),[4],1.07
same,glycan array binding signal (z-score),[5],3.85
same,glycan array binding signal (z-score),[6],2.02
same,glycan array binding signal (z-score),[7],3.33
same,glycan array binding signal (z-score),[8],-0.222
same,glycan array binding signal (z-score),[9],-0.352
same,glycan array binding signal (z-score),[10],-0.353
same,glycan array binding signal (z-score),[11],-0.363
same,glycan array binding signal (z-score),[12],-0.348
same,glycan array binding signal (z-score),[13],-0.363
same,glycan array binding signal (z-score),[14],-0.362
same,glycan array binding signal (z-score),Neu5Ac(a2-3)GalNAc,-0.365
same,glycan array binding signal (z-score),[15],-0.354
same,glycan array binding signal (z-score),[16],-0.356
same,glycan array binding signal (z-score),[17],-0.346
same,glycan array binding signal (z-score),[18],-0.354
same,glycan array binding signal (z-score),Neu5Ac(a2-6)Gal,-0.36
same,glycan array binding signal (z-score),Neu5Ac(a2-6)Gal(b1-4)Glc,1.43
same,glycan array binding signal (z-score),[19],-0.361
same,glycan array binding signal (z-score),[20],-0.108
same,glycan array binding signal (z-score),[21],-0.338
same,glycan array binding signal (z-score),[22],-0.371
same,glycan array binding signal (z-score),Neu5Ac(a2-6)GalNAc,-0.352
same,glycan array binding signal (z-score),[23],-0.356
same,glycan array binding signal (z-score),Neu5Ac(a2-8)Neu5Ac,-0.355
same,glycan array binding signal (z-score),[24],3.41
same,glycan array binding signal (z-score),[25],-0.355
same,glycan array binding signal (z-score),[26],-0.346
same,glycan array binding signal (z-score),[27],3.32
same,glycan array binding signal (z-score),[28],-0.349
same,glycan array binding signal (z-score),[29],-0.371
same,glycan array binding signal (z-score),Neu5Ac(b1-6)GalNAc,-0.363
same,glycan array binding signal (z-score),[30],-0.366
same,glycan array binding signal (z-score),[31],-0.357
same,glycan array binding signal (z-score),[32],-0.348
same,glycan array binding signal (z-score),[33],-0.358
same,glycan array binding signal (z-score),Neu5Gc(a2-3)Gal(b1-4)Glc,3.32
same,glycan array binding signal (z-score),[34],3.69
same,glycan array binding signal (z-score),[35],-0.319
same,glycan array binding signal (z-score),[36],-0.356
same,glycan array binding signal (z-score),Neu5Gc(a2-6)GalNAc,-0.34
